Laboratory results published in patent EP4702986A1, “POLYPEPTIDE AND USE THEREOF” (Biocells (Beijing) Biotech Co., Ltd., priority 2023, dated 2024).
Changes are numbered by the printed parent chain. For at least one compound, name, drawing or mass did not settle the structure. Numbered stars: 1 amine (or outer) side, 2 acyl side, 3 side chain; on linkers, the order of the positions; unused ones are H or OH. Side chains are listed from the residue outwards. Peptide text beside a SMILES is read from it. * marks the point of attachment. C18 diacid = O=C(O)CCCCCCCCCCCCCCCCC(=O)*; γGlu = O=C(O)[C@H](CCC(=O)[*:2])N[*:1]; Stearoyl = CCCCCCCCCCCCCCCCCC(=O)*; Palmitoyl = CCCCCCCCCCCCCCCC(=O)*; Fumaroyl = O=C(O)/C=C/C(=O)*; Lauroyl = CCCCCCCCCCCC(=O)*; AEEA = NCCOCCOCC(=O)O

How the values were obtained:
Type in all cases: cell-based
[1] = molecular target: T1, dog ETB receptor (Canis lupus familiaris, UniProt P56497); assay: Determination of EC50s of polypeptides against dog ETB receptor; details: Table 7, dog ETB receptor; read-out: DETAR Agonist Activity EC50
T1 construct: expressed in transfected cells
T1 sequence (P56497 27-442): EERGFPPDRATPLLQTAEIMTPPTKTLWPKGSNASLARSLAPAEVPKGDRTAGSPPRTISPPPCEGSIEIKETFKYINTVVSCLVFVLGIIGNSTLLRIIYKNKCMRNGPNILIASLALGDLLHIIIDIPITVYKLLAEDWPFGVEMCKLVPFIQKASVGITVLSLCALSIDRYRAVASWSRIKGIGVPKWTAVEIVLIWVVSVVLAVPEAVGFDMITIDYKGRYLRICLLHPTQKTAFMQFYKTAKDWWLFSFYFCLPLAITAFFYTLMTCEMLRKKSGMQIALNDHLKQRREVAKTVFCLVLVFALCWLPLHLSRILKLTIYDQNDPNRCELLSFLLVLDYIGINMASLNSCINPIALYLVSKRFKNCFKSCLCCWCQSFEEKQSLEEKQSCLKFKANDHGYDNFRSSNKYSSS
Description: (§1) 293T-17 cells were seeded at a density of 650,000 cells per well in a 6-well plate and cultured overnight in an incubator at 37°C and 5% CO2. Afterward, the cells were transfected with an expression vector, PCDNA3.1-hETB which contained a human ETB receptor gene, at a plasmid concentration of 2.5 µg per well. The cells were further cultured for 48 hours, and green fluorescence expression was observed under a fluorescence microscope. The cells were then digested with trypsin and counted. The activity of compounds on the human ETB receptor was determined with the IP-One Gq kit from Cisbio Bioassays. The cells were suspended in Stim Buffer provided in the kit and the cell suspension was added to a 96-well detection plate at 7 µL cell suspension (containing 30,000 cells) per well. The polypeptides to be tested (prepared according to the Preparation Example of the invention) were diluted in Stim B to obtain a gradient of 11 concentration points. For each concentration point, the polypeptides to be tested were dissolved in Stim B to be at a concentration of 2×, and added at 7 µL to the test cells, while 7 µL of PBS solution was added to the cells in the negative control wells. The plate was sealed and incubated at 37°C for 1 hour in a cell culture incubator. Detection wells, positive control wells containing human endothelin ET1 (ET1: […] (C1-C15,C3-C11)), and PBS control wells were each added with 3 µL of IP1 d2 working solution and 3 µL of IP1 Tb cryptotate Antibody working solution. The plate was then sealed and incubated in the dark at room temperature (25°C±5°C) for 1 hour. The plate seal was removed, and the […] at 665 nm and 620 nm was measured with an ID5 microplate reader. The ratio of the acceptor emission signal to the donor emission signal, i.e., (signal at 665 nm/signal at 620 nm)×10^4, was calculated for each well. With F representing the average value of values of signal at 665 nm/signal at 620 nm for the test samples at various concentrations, a scatterplot was plotted, where the abscissa represented the F value, and the ordinate represented the logarithmic value of the peptide concentration. A curve was fitted with an appropriate method to calculate EC50 values of the polypeptides against the human ETB receptor. Another method was provided for fitting a curve where activation rate of the test polypeptides at each concentration relative to the positive control sample human endothelin ET1 was calculated first with the method in Example 1, and a scatterplot was plotted, where the abscissa represented the activation rate, and the ordinate represented the logarithmic value of the polypeptide concentration. A curve was fitted with an appropriate method to calculate the EC50 values of the polypeptides against the human ETB receptor.
The process is the same as that in Example 3, except that the transfected plasmid was expression vector PCDNA3.1-DETB which contained a dog ETB receptor gene. EC50 values of the polypeptide against the dog ETB receptor were calculated (see Figures 8-10). The sequence of the dog endothelin receptor B (NCBI accession number: NM_001010943.2).

[2] = molecular target: T2, mouse ETB receptor (Mus musculus, UniProt P48302); assay: Determination of EC50s of polypeptides against mouse ETB receptor; details: Table 9, mouse ETB receptor; read-out: DETAR Agonist Activity EC50
T2 construct: expressed in transfected cells
T2 sequence (P48302 27-442): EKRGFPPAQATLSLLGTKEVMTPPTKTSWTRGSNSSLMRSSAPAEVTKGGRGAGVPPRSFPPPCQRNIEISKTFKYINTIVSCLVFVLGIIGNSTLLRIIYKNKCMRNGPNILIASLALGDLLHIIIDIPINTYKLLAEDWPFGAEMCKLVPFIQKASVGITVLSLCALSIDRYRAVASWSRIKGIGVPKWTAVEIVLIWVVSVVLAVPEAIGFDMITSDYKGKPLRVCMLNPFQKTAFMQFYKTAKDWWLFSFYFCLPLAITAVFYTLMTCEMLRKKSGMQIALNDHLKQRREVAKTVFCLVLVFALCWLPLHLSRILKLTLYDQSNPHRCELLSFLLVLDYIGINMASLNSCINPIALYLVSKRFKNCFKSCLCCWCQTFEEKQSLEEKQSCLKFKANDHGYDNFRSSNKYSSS

[3] = molecular target: T3, human ETB receptor (Homo sapiens, UniProt P24530); assay: Determination of EC50 of polypeptides against human ETB receptor (IP-One Gq kit); details: 293T-17 cells transfected with PCDNA3.1-hETB; read-out: hETBR agonist activity EC50/nM
T3 construct: expressed in transfected cells; host or cells: 293T-17 cells, transient transfection
T3 sequence (P24530 27-442): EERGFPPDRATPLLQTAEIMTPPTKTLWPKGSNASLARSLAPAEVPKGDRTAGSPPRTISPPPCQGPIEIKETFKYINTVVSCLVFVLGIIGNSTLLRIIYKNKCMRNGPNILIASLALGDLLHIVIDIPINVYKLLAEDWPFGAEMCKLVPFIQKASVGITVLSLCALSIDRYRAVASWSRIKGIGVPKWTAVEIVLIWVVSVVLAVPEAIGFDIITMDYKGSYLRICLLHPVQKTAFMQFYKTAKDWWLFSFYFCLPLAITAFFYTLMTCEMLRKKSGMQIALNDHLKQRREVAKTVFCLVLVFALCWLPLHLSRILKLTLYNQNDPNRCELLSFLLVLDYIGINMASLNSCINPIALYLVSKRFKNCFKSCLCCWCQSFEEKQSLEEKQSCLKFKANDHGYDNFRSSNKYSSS
Description: as §1

[4] = molecular target: T4, rat ETB receptor (Rattus norvegicus, UniProt P21451); assay: Determination of EC50s of polypeptides against rat ETB receptor; details: Table 8, rat ETB receptor; read-out: DETAR Agonist Activity EC50
T4 construct: expressed in transfected cells
T4 sequence (P21451 27-442): T2 sequence (P48302 27-442) with L12P, G52V, N67K, S71N, T133A, E139G, M216V, V265I, H330Q
Description: as §1
The process is the same as that in Example 3, except that the transfected plasmid was expression vector PCDNA3.1-RETB which contained a rat ETB receptor gene. EC50 values of the polypeptides against the rat ETB receptor were calculated (see Figures 11-13). The sequence of the rat ETB receptor (NCBI accession number: X57764.1).

Row | Structure (SMILES) | EC50 [1] [nM] | EC50 [2] [nM] | EC50 [3] [nM] | EC50 [4] [nM]
1 | CC[C@H](C)[C@H](NC(=O)[C@H](CC(=O)O)NC(=O)[C@H](CCCCNC(=O)COCCOCCNC(=O)COCCOCCNC(=O)CC[C@H](NC(=O)CCCCCCCCCCCCCCCCC(=O)O)C(=O)O)NC(=O)[C@H](Cc1c[nH]cn1)NC(=O)[C@H](C)NC(=O)[C@H](Cc1ccccc1)NC(=O)[C@H](Cc1ccc(O)cc1)NC(=O)[C@@H](NC(=O)[C@H](C)NC(=O)[C@H](CCC(=O)O)NC(=O)[C@H](CCC(=O)O)NC(=O)[C@H](CC(=O)O)NC(=O)/C=C/C(=O)O)C(C)C)C(=O)N[C@H](C(=O)N[C@@H](Cc1c[nH]c2ccccc12)C(=O)O)[C@@H](C)CC [BX-34] (Fumaroyl-DEEAVYFAHK([AEEA-AEEA-γGlu-C18 diacid])DIIW-OH) | 313 | 71.7 | 18.3 | 10.2
2 | CCCCCCCCCCCCCCCCCC(=O)NCCOCCOCC(=O)NCCOCCOCC(=O)N[C@@H](CCC(=O)NCCCC[C@H](NC(=O)[C@H](Cc1c[nH]cn1)NC(=O)[C@H](C)NC(=O)[C@H](Cc1ccccc1)NC(=O)[C@H](Cc1ccc(O)cc1)NC(=O)[C@@H](NC(=O)[C@H](C)NC(=O)[C@H](CCC(=O)O)NC(=O)[C@H](CCC(=O)O)NC(=O)[C@H](CC(=O)O)NC(=O)/C=C/C(=O)O)C(C)C)C(=O)N[C@@H](CC(=O)O)C(=O)N[C@H](C(=O)N[C@H](C(=O)N[C@@H](Cc1c[nH]c2ccccc12)C(=O)O)[C@@H](C)CC)[C@@H](C)CC)C(=O)O [BX-69] (Fumaroyl-DEEAVYFAHK([γGlu-AEEA-AEEA-Stearoyl])DIIW-OH) | 30.7 | 71.5 | 1150 | 33.2
3 | CCCCCCCCCCCC(=O)NCCOCCOCC(=O)NCCOCCOCC(=O)N[C@@H](CCC(=O)NCCCC[C@H](NC(=O)[C@H](Cc1c[nH]cn1)NC(=O)[C@H](C)NC(=O)[C@H](Cc1ccccc1)NC(=O)[C@H](Cc1ccc(O)cc1)NC(=O)[C@@H](NC(=O)[C@H](C)NC(=O)[C@H](CCC(=O)O)NC(=O)[C@H](CCC(=O)O)NC(=O)[C@H](CC(=O)O)NC(=O)/C=C/C(=O)O)C(C)C)C(=O)N[C@@H](CC(=O)O)C(=O)N[C@H](C(=O)N[C@H](C(=O)N[C@@H](Cc1c[nH]c2ccccc12)C(=O)O)[C@@H](C)CC)[C@@H](C)CC)C(=O)O [BX-71] (Fumaroyl-DEEAVYFAHK([γGlu-AEEA-AEEA-Lauroyl])DIIW-OH) | 63.3 | 4.17 | 74.7 | 22.2
4 | CCCCCCCCCCCCCCCC(=O)N[C@@H](CCC(=O)NCCOCCOCC(=O)NCCCC[C@H](NC(=O)[C@H](Cc1c[nH]cn1)NC(=O)[C@H](C)NC(=O)[C@H](Cc1ccccc1)NC(=O)[C@H](Cc1ccc(O)cc1)NC(=O)[C@@H](NC(=O)[C@H](C)NC(=O)[C@H](CCC(=O)O)NC(=O)[C@H](CCC(=O)O)NC(=O)[C@H](CC(=O)O)NC(=O)/C=C/C(=O)O)C(C)C)C(=O)N[C@@H](CC(=O)O)C(=O)N[C@H](C(=O)N[C@H](C(=O)N[C@@H](Cc1c[nH]c2ccccc12)C(=O)O)[C@@H](C)CC)[C@@H](C)CC)C(=O)O [BX-224] (Fumaroyl-DEEAVYFAHK([AEEA-γGlu-Palmitoyl])DIIW-OH) | 58.2 | 120 | 75.6 | 48.3
5 | CCCCCCCCCCCC(=O)N[C@@H](CCC(=O)NCCOCCOCC(=O)NCCCC[C@H](NC(=O)[C@H](Cc1c[nH]cn1)NC(=O)[C@H](C)NC(=O)[C@H](Cc1ccccc1)NC(=O)[C@H](Cc1ccc(O)cc1)NC(=O)[C@@H](NC(=O)[C@H](C)NC(=O)[C@H](CCC(=O)O)NC(=O)[C@H](CCC(=O)O)NC(=O)[C@H](CC(=O)O)NC(=O)/C=C/C(=O)O)C(C)C)C(=O)N[C@@H](CC(=O)O)C(=O)N[C@H](C(=O)N[C@H](C(=O)N[C@@H](Cc1c[nH]c2ccccc12)C(=O)O)[C@@H](C)CC)[C@@H](C)CC)C(=O)O [BX-225] (Fumaroyl-DEEAVYFAHK([AEEA-γGlu-Lauroyl])DIIW-OH) | 17.7 | 64.8 |  | 21
6 | CC[C@H](C)[C@H](NC(=O)[C@H](CC(=O)O)NC(=O)[C@H](CC(C)C)NC(=O)[C@H](Cc1c[nH]cn1)NC(=O)[C@H](C)NC(=O)[C@H](Cc1ccccc1)NC(=O)[C@H](Cc1ccc(O)cc1)NC(=O)[C@@H](NC(=O)[C@H](C)NC(=O)[C@H](CCC(=O)O)NC(=O)[C@H](CCC(=O)O)NC(=O)[C@H](CC(=O)O)NC(=O)[C@H](CC(=O)O)NC(=O)COCCOCCNC(=O)COCCOCCNC(=O)CC[C@H](NC(=O)CCCCCCCCCCCCCCCCC(=O)O)C(=O)O)C(C)C)C(=O)N[C@H](C(=O)N[C@@H](Cc1c[nH]c2ccccc12)C(=O)O)[C@@H](C)CC [BX-255] ({C18 diacid-γGlu-AEEA-AEEA}-DDEEAVYFAHLDIIW-OH) | 223 | 27.6 | 33.8 | 53
